{"source": "ChEMBL document CHEMBL4888484", "about": "“Replenishing the malaria drug discovery pipeline: Screening and hit evaluation of the MMV Hit Generation Library 1 (HGL1) against asexual blood stage Plasmodium falciparum ,using a nano luciferase reporter read-out” (2022)", "note": "The whole screen tested about 150,000 compounds, of which about 540 (0.36%) showed an effect of 50% or more. This is one part of the list.", "data": [{"system": "Plasmodium falciparum", "assay": "Primary screen in NF54 nanoGlo assay, in single point, at 2uM, 72h; a lower Z score goes with more inhibition", "type": "functional, Erythrocyte", "conditions": "timepoint 72 hour", "units": {"% Inhibition": "%"}, "values": [{"compound": "Cn1c(C[C@H]2CN(Cc3cccc(F)c3)CC[C@H]2CC(=O)O)nc2ccccc21", "% Inhibition": 24, "Z score": -2.77}, {"compound": "O[C@H]1C[C@H]2CC[C@@H](C1)N2c1nc(-c2cccnc2)nc2c1CNC2", "% Inhibition": -8, "Z score": 1.23}, {"compound": "Cc1cc(C(=O)N(C)Cc2nc3ccccc3c(=O)[nH]2)c(C)o1", "% Inhibition": 6, "Z score": -1.21}, {"compound": "Cc1cc(C)c(-c2ncc[nH]2)cc1Cn1cncn1", "% Inhibition": -4, "Z score": 0.73}, {"compound": "CCCNC(=O)n1ccc(C(=O)N2CCOCC2)n1", "% Inhibition": 11, "Z score": -1.6}, {"compound": "O=S1(=O)CCCN1Cc1ccccc1OC(F)F", "% Inhibition": -4, "Z score": 0.39}, {"compound": "CC(C)[C@H]1CCCN(Cc2cnc(N(C)C)s2)CC1", "% Inhibition": -8, "Z score": 0.87}, {"compound": "Cc1sc(NC(=O)CN2CCC[C@H]2C(=O)O)c(C)c1C", "% Inhibition": -21, "Z score": 2.87}, {"compound": "Cc1nc2n(c1CN1CCN(c3ccccn3)CC1)CCCC2", "% Inhibition": 1, "Z score": -0.17}, {"compound": "O=C(NCc1ccc(Cl)cc1)c1ccc(-n2nc3c(c2-c2cccc(C(F)(F)F)c2)CCC3)cc1", "% Inhibition": -3, "Z score": 0.43}, {"compound": "COc1ccccc1C[C@@H](C)Cc1nc(-c2ccccn2)no1", "% Inhibition": -7, "Z score": 0.77}, {"compound": "O=S(=O)(NC[C@H]1Cn2ccnc2CO1)c1ccc(Cl)cc1", "% Inhibition": -6, "Z score": 0.91}, {"compound": "CNC(=NC(C)C1CCCO1)N1CCC(C)CC1", "note": "(centres undefined)", "% Inhibition": -1, "Z score": 0.12}, {"compound": "Fc1cnccc1N1CCO[C@H](c2ccc(Cl)cc2)C1", "% Inhibition": -8, "Z score": 1.06}, {"compound": "CC(C)(CC(=O)NS(C)(=O)=O)C1CC1", "% Inhibition": 2, "Z score": -0.32}, {"compound": "COc1cccc([C@H]2CCN(C(=O)CNC(=O)N(C)C)C2)c1OC", "% Inhibition": -2, "Z score": 0.19}, {"compound": "CS(=O)(=O)N1CCN(C(=O)NC[C@@H](c2ccco2)n2cccn2)C1=O", "% Inhibition": -5, "Z score": 1.04}, {"compound": "O=C(c1ccccc1)c1ccc2n1CC[C@H]2C(=O)Nc1ccc(C(F)(F)F)cc1", "% Inhibition": 30, "Z score": -3.39}, {"compound": "CS(=O)(=O)N1C[C@@H]2CC[C@H]1CN(C(=O)c1ccccc1)C2", "% Inhibition": 6, "Z score": -1.11}, {"compound": "COc1nccc(N2CCN(Cc3ccc(C)o3)[C@@H](CCO)C2)c1C#N", "% Inhibition": 0, "Z score": 0.05}, {"compound": "CN(CC(=O)NC(=O)NC1CC1)Cc1cccc(Cl)c1Cl", "% Inhibition": -12, "Z score": 1.6}, {"compound": "CS(=O)(=O)Nc1ccc(-c2cnc3ccc(F)cc3c2)cn1", "% Inhibition": -13, "Z score": 1.7}, {"compound": "CCc1cnccc1C(=O)NCCc1nc(C2CC2)cs1", "% Inhibition": 7, "Z score": -0.59}, {"compound": "COCCNC(=O)CNc1ccccc1", "% Inhibition": 5, "Z score": -0.47}, {"compound": "Cc1nc(N(Cc2c(C)nn(C)c2C)C(C)C)c2nc(C)oc2n1", "% Inhibition": -12, "Z score": 1.7}, {"compound": "CCS(=O)(=O)N1CCC[C@H](C(=O)N(C)Cc2c[nH]nc2C)C1", "% Inhibition": 7, "Z score": -0.93}, {"compound": "COc1ccc([C@H]2OCC[C@@H]2Nc2ncnc3c(F)c(OC)ccc23)cn1", "% Inhibition": -14, "Z score": 1.86}, {"compound": "CC1(C)Cc2nc(N3CCC(O)CC3)ncc2[C@@H](NCc2cccnc2)C1", "% Inhibition": -3, "Z score": 0.36}, {"compound": "Cc1cccc2cc3c(nc12)N(C(=O)C(C)C)CC3", "% Inhibition": -6, "Z score": 0.64}, {"compound": "O=C(Nc1ccccc1)C1CCN(Cc2nc3ccccc3s2)CC1", "% Inhibition": -10, "Z score": 1.34}, {"compound": "CCn1c(CC2CCN(CC3=CC[C@H]4C[C@@H]3C4(C)C)CC2)nn(C)c1=O", "% Inhibition": -13, "Z score": 1.19}, {"compound": "O=S(=O)(c1cnn(C2CCCC2)c1)N1CC(O)(C(F)(F)F)C1", "% Inhibition": 12, "Z score": -2.14}, {"compound": "CC12CCC(C(=O)N(CN3CCOCC3)C1=O)C2(C)C", "note": "(centres undefined)", "% Inhibition": 6, "Z score": -0.76}, {"compound": "COc1ccc(-c2ccnc3nc([C@@H]4CCCO4)nn23)c(F)c1", "% Inhibition": -9, "Z score": 1.4}, {"compound": "Cc1cccc2c1CCN(S(=O)(=O)c1cnc(C3CC3)s1)[C@H]2C(=O)O", "% Inhibition": -2, "Z score": 0.25}, {"compound": "CCNS(=O)(=O)c1ccc2c(c1)C(C)(C)CN2CC(=O)N1CCCC1", "% Inhibition": 0, "Z score": 0.05}, {"compound": "Cc1nc(-c2ccccc2)c(C(=O)N(C)CC(=O)N2CCOCC2)s1", "% Inhibition": -5, "Z score": 0.66}, {"compound": "C[C@@H]1COCCN(C(=O)Nc2ccc(Cl)c(OC(F)F)c2)C1", "% Inhibition": 1, "Z score": -0.15}, {"compound": "Cc1ccc(-c2c3c(=O)n(C)c(=O)n(C)c3c3n2-c2ccccc2O[C@@H]3c2cccc(F)c2F)cc1", "% Inhibition": -11, "Z score": 1.48}, {"compound": "COc1ccc(N[C@H]2CCCN(C(=O)CCCN3CCCC3=O)C2)cc1OC", "% Inhibition": 9, "Z score": -1.19}, {"compound": "Cc1nccn1-c1ccc(-c2ccc(S(C)(=O)=O)cc2)nn1", "% Inhibition": -1, "Z score": 0.24}, {"compound": "Cc1nn(C)c(C)c1NC(=O)c1cc2c(s1)CCCC2", "% Inhibition": -8, "Z score": 1.02}, {"compound": "COCCNCCOc1ccc(Cl)c(Cl)c1", "% Inhibition": -7, "Z score": 0.93}, {"compound": "COc1ccc(-n2cc([C@H](C)Nc3cc(C)nc4ccnn34)cn2)cc1", "% Inhibition": -10, "Z score": 1.18}, {"compound": "CC(C)CN(CC(N)=O)Cc1cn(C)nn1", "% Inhibition": -2, "Z score": 0.17}, {"compound": "COc1ccc(C(=O)CCC(=O)N2CC(OCc3ccccc3)C2)cc1", "% Inhibition": -9, "Z score": 1.32}, {"compound": "Cc1cccc(NC(=O)C2C(=O)NC34CCCCC3C2c2ccccc2O4)c1", "note": "(centres undefined)", "% Inhibition": -6, "Z score": 0.5}, {"compound": "Cc1cccnc1CNc1cncc(Br)c1", "% Inhibition": 17, "Z score": -2.07}, {"compound": "CCOc1ccc(Nc2nnc(-c3nc(-c4ccccc4)oc3N)s2)cc1", "% Inhibition": -7, "Z score": 0.96}, {"compound": "CC(=O)N1CCc2cc(S(=O)(=O)Oc3ccccc3C#N)ccc21", "% Inhibition": -15, "Z score": 1.29}, {"compound": "O=C(NC[C@H]1CN(S(=O)(=O)c2cccc(F)c2)CC12CCOCC2)N1CCCC1", "% Inhibition": -7, "Z score": 1.3}, {"compound": "Cc1nc(C(=O)Nc2cnn([C@H]3CCOC3)c2)cs1", "% Inhibition": 7, "Z score": -0.89}, {"compound": "Cn1c(=O)c(-c2ccc(C(=O)NC3CCCCC3)cc2)nc2cccnc21", "% Inhibition": 1, "Z score": -0.12}, {"compound": "CC1CCN(C(=O)c2ccccc2N2CCC(NC(=O)c3cc(F)cc(F)c3)CC2)CC1", "% Inhibition": -15, "Z score": 2.1}, {"compound": "COc1ccc(Cl)cc1NC(=O)Cn1nc(C(=O)N2CCCC2)ccc1=O", "% Inhibition": -15, "Z score": 1.99}, {"compound": "COc1cc(-c2cccc(C(=O)NCC[C@H]3CCCN3C)c2)nc(OC)n1", "% Inhibition": -12, "Z score": 1.26}, {"compound": "O=C1COCC(=O)N1Cc1ccccc1", "% Inhibition": 7, "Z score": -0.87}, {"compound": "CC(C)[C@@H](c1ccccc1)N(C)CC#N", "% Inhibition": 6, "Z score": -1.14}, {"compound": "CC(=O)NCCNC(=O)c1cc(NCc2ccccc2C)cc(S(=O)(=O)Nc2ccccc2C)c1", "% Inhibition": -5, "Z score": 0.92}, {"compound": "Cc1nc2ccccn2c1CC(=O)NCCS(=O)(=O)CC(C)C", "% Inhibition": 0, "Z score": -0.01}, {"compound": "Cc1csc(CN(C[C@H]2CCCO2)C(=O)Cc2cc(C)on2)n1", "% Inhibition": -13, "Z score": 2.53}, {"compound": "CC[C@@H](C(=O)Nc1c(N2CCCC2)nn(C)c1C)n1cccn1", "% Inhibition": -1, "Z score": 0.11}, {"compound": "Fc1cccc2c3c([nH]c12)CNCCC3", "% Inhibition": 1, "Z score": -0.13}, {"compound": "Cc1cc(C(=O)Nc2sc3c(c2C#N)CCCCC3)no1", "% Inhibition": -23, "Z score": 2.1}, {"compound": "CN(CCc1cnn(C)c1)C(=O)c1cnc(-c2ccncc2)nc1", "% Inhibition": -9, "Z score": 0.83}, {"compound": "COc1ccc(OCC(F)(F)C(F)F)c(C(N)=O)c1", "% Inhibition": 20, "Z score": -2.27}, {"compound": "COc1cc(OC)nc(N2CCO[C@H](C(=O)N(C)C)C2)n1", "% Inhibition": 4, "Z score": -0.91}, {"compound": "Brc1ccc(-c2oc(-c3ccccc3)nc2-c2ccccc2)cc1", "% Inhibition": -16, "Z score": 2.08}, {"compound": "C=CCN(CCO)S(=O)(=O)c1ccc(Br)cc1C", "% Inhibition": -2, "Z score": 0.29}, {"compound": "CC1CC1C(=O)N(C)CCOCc1ccccc1", "note": "(centres undefined)", "% Inhibition": 4, "Z score": -0.53}, {"compound": "Cc1n[nH]cc1CNC1CCCC(C)C1C", "note": "(centres undefined)", "% Inhibition": 6, "Z score": -0.71}, {"compound": "O=C(c1ccccc1F)N(Cc1ccc(F)cc1)Cc1nc2cc(Cl)ccc2o1", "% Inhibition": -13, "Z score": 1.29}, {"compound": "O=C(c1ccc(-c2noc(-c3ccccc3)n2)s1)N1CCN(C2CCCCC2)CC1", "% Inhibition": -5, "Z score": 0.72}, {"compound": "O=C1CCC2(c3ccccc3)CCCCC2N1", "note": "(centres undefined)", "% Inhibition": -13, "Z score": 2.57}, {"compound": "CC(C)[C@H](CO)N(C)C(=O)c1cccc(-c2ccc(O)c(-c3ccno3)c2)c1", "% Inhibition": -13, "Z score": 2.3}, {"compound": "O=C(c1ccc2c(c1)CCC2)N1CCCC1", "% Inhibition": -12, "Z score": 1.46}, {"compound": "Cc1cccn2c(Nc3ccccc3)c(-c3ccc(N4CCOCC4)cc3)nc12", "% Inhibition": -12, "Z score": 1.95}, {"compound": "Cc1ccc(O)c(CN2CC[C@H](c3sccc3C)[C@@H](O)C2)n1", "% Inhibition": -10, "Z score": 1.28}, {"compound": "CN1CCN(CC2(C)CCN(S(=O)(=O)C[C@H]3CCCCO3)CC2)CC1", "% Inhibition": -8, "Z score": 1.61}, {"compound": "O=S(=O)(C[C@H]1CCOC1)N1CCN(c2nc[nH]n2)CC1", "% Inhibition": -12, "Z score": 1.51}, {"compound": "Cc1cnc(C2CC2)n1[C@H]1CCCN(C(=O)c2cccc3[nH]ccc23)C1", "% Inhibition": -15, "Z score": 1.87}, {"compound": "CC1CN(S(=O)(=O)c2cccs2)C(C)CN1S(=O)(=O)c1cccs1", "note": "(centres undefined)", "% Inhibition": 2, "Z score": -0.26}, {"compound": "CC(C)(C)OC(=O)NC1CCC(C(=O)Nc2ccsc2)C1", "note": "(centres undefined)", "% Inhibition": -8, "Z score": 1.2}, {"compound": "Cc1ccc(NC(=O)OCC(F)(F)F)cc1C", "% Inhibition": -6, "Z score": 0.63}, {"compound": "COc1ccc(C(=O)NCCc2ccccc2OC)nn1", "% Inhibition": -6, "Z score": 0.72}, {"compound": "COc1ccc(NC(=O)c2cc(C3CC3)nc3ccccc23)c(OC)c1", "% Inhibition": -4, "Z score": 0.6}, {"compound": "Cc1csc(CNC(=O)Nc2cccnc2)n1", "% Inhibition": -4, "Z score": 0.72}]}]}
